# Test results published in PubChem BioAssay (Tox21).
# Several values for one entry are separate records, joined by “and”; a condition that tells them apart may be missing. Equal entries are not always repeated. Inconclusive means that the source gave no clear call. Such entries were picked first, then a sample of the others. For part of these data: Potencies of inconclusive entries are doubtful fits and often do not repeat. Activity calls are given as the source filed them. Unless noted, calls come from the whole dose curve; as a rule, active = well fitted curve in the direction sought with a large enough effect in the repeat runs; inconclusive = weak or mixed curves; inactive = no such curve, though single readings can be large; an effect the other way counts as inactive or inconclusive.
# Key:
# [1] = target: Androgen receptor (Homo sapiens) (UniProt P10275); assay: qHTS assay to identify small molecule antagonists of the androgen receptor (AR) signaling pathway (AID 743035; active = well fitted inhibition curve with a large enough effect in the signal ratio in the repeat runs, not every such curve was filed as active; inconclusive = weak or mixed curves, or effect the other way; inactive = no such curve, though single readings can be large or run the other way; the % refers to the signal ratio; note: % is set by controls: 0 for no effect and ±100 for the full control effect); conditions: HEK293 AR-UAS-bla, R1881-stimulated, beta-lactamase FRET, 16 h; activity change, negative = inhibition: at 58.5 µM (top of the series) unless noted
# UniProt P10275, sequence (P10275 whole entry, looked up): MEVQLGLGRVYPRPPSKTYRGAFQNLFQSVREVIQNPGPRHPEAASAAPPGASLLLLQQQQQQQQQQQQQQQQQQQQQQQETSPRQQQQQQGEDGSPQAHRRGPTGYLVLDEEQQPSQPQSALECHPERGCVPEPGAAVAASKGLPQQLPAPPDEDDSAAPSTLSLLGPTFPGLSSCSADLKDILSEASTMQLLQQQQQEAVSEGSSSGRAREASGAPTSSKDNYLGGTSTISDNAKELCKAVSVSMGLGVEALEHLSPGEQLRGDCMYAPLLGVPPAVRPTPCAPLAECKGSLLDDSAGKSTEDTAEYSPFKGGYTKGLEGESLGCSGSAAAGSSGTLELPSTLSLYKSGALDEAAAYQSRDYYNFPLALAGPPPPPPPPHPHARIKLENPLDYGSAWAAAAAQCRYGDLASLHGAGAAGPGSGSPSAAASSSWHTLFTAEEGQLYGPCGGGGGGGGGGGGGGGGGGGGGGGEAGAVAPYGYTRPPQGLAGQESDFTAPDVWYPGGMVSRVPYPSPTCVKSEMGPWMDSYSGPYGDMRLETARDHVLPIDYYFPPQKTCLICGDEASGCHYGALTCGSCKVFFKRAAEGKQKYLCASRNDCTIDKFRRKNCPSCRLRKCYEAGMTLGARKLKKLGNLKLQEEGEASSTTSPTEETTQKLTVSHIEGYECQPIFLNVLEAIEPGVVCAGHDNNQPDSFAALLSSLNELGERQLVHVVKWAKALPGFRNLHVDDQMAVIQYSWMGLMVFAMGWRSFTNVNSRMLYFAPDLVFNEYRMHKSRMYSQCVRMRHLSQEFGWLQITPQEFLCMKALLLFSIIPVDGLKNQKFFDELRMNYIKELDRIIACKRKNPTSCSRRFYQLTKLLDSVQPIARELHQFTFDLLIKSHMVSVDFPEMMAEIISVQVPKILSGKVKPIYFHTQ
# Method in brief: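 HEK293 cells stably carrying UAS-beta-lactamase reporter, 2,000/well, given compounds plus R1881 agonist and incubated 16 h at 37C. LiveBLAzer B/G FRET substrate then added for 2 h at room temperature before fluorescence reading.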
# [2] = target: Estrogen receptor (Homo sapiens) (UniProt P03372); assay: qHTS assay to identify small molecule antagonists of the estrogen receptor alpha (ER-alpha) signaling pathway (AID 743069; active = well fitted curve in the direction sought with a large enough effect in the signal ratio in the repeat runs, not every such curve was filed as active; inconclusive = weak or mixed curves, or effect the other way; inactive = no such curve, though single readings can be large or run the other way; the % refers to the signal ratio; note: potency is the fitted concentration of half-maximal effect); conditions: HEK293 ER-alpha-UAS-bla, beta-lactamase ratio, antagonist mode; activity, negative = inhibition: at 69.4 µM (top of the series) unless noted
# UniProt P03372, sequence (P03372 whole entry, looked up): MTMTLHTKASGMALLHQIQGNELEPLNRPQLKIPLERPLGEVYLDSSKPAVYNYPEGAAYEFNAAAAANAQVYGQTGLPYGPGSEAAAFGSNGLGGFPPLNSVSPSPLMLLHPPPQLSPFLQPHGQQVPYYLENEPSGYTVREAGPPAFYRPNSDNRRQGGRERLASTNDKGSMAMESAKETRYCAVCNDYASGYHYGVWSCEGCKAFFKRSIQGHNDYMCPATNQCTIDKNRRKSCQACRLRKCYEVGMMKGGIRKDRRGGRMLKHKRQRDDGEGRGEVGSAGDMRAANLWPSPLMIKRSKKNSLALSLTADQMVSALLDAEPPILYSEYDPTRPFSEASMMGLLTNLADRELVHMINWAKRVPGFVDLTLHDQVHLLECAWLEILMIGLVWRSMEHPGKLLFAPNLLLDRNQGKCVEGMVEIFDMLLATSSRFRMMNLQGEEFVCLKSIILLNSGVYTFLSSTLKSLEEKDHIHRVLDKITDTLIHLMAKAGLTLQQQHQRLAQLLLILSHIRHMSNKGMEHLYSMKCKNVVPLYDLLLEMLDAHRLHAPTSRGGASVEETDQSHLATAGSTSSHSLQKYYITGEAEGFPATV
# Method in brief: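 Reporter cells (ER-alpha-bla, HEK293 background) are conditioned overnight in stripped-serum medium (2% charcoal-stripped FBS). Compound and 17beta-estradiol exposure runs 18 hr at 37C, 5% CO2.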
# [3] = qHTS assay to identify small molecule antagonists of the estrogen receptor alpha (ER-alpha) signaling pathway - cell viability counter screen (AID 743074; calls by dose curve;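 note: HEK293 cells carrying ER-alpha-UAS-bla reporter stimulated with 17beta-estradiol; nearly all actives have a fitted effect of over 45% in size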; note: potency is the fitted concentration of half-maximal effect)
# [4] = target: Estrogen receptor (Homo sapiens) (UniProt P03372); assay: qHTS assay to identify small molecule agonists of the estrogen receptor alpha (ER-alpha) signaling pathway (AID 743075; calls by dose curve;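 note: HEK293 GripTite cells with ER-alpha and UAS-driven beta-lactamase reporter; % is set by controls: 0 for no effect and ±100 for the full control effect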)
# [5] = qHTS assay to identify small molecule antagonists of the estrogen receptor alpha (ER-alpha) signaling pathway using the BG1 cell line - cell viability counter screen (AID 743081); conditions: BG1Luc4E2 viability, CellTiter-Fluor, 22 h; activity change, negative = cytotoxicity: at 70.3 µM (top of the series);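 note: compound given together with 17beta-estradiol as the ER stimulus; % is set by controls: 0 for no effect and ±100 for the full control effect; nearly all actives have a fitted effect of over 45% in size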
# Aromatase (Homo sapiens) = Aromatase (Homo sapiens) (UniProt P11511); assay: qHTS assay to identify aromatase inhibitors (AID 743083); conditions: MCF-7 aro ERE, testosterone-driven ERE luciferase, 24 h; activity, negative = inhibition: at 70.3 µM (top of the series); note: potency is the fitted concentration of half-maximal effect; nearly all actives have a fitted effect of over 55% in size
# UniProt P11511, sequence (P11511 whole entry, looked up): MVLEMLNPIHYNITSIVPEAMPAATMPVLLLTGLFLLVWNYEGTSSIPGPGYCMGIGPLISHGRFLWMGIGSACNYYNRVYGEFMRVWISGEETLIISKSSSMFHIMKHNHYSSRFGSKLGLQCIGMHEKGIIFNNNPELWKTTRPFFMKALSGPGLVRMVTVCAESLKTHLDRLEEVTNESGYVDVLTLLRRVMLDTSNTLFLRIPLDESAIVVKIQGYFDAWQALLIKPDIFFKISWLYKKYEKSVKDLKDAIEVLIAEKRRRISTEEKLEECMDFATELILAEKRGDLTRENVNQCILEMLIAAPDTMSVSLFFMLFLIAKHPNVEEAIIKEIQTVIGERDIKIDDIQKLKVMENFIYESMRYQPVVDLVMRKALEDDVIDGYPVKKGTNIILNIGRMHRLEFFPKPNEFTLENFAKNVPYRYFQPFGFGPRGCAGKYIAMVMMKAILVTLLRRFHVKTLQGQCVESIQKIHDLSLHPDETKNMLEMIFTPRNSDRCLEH
# [6] = qHTS assay to identify aromatase inhibitors - cell viability counter screen (AID 743084); conditions: MCF-7 aro ERE viability, CellTiter-Fluor, 24 h; activity change, negative = cytotoxicity: at 70.3 µM (top of the series) unless noted;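 note: cells stimulated with testosterone during compound exposure; nearly all actives have a fitted effect of over 55% in size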; note: potency is the fitted concentration of half-maximal effect
# [7] = target: Androgen receptor (Homo sapiens) (UniProt P10275); assay: qHTS assay to identify small molecule agonists of the androgen receptor (AR) signaling pathway (AID 743036; active = well fitted activation curve with a large enough effect in the signal ratio in the repeat runs, with a control signal flat, not every such curve was filed as active; inconclusive = weak or mixed curves, or effect the other way; inactive = no such curve, though single readings can be large or run the other way; the % refers to the signal ratio; note: potency is the fitted concentration of half-maximal effect); conditions: HEK293 AR-UAS-bla GripTite, beta-lactamase FRET ratio, 16 h; activation: at 62.4 µM (top of the series) unless noted
# Method in brief: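 Reporter line: GeneBLAzer AR-UAS-bla-GripTite (HEK293). Steps: plate cells, 4 h rest, add compounds, 16 h at 37C, add LiveBLAzer B/G substrate, 2 h at RT, read fluorescence.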
# [8] = target: Androgen receptor (Homo sapiens) (UniProt P10275); assay: qHTS assay to identify small molecule agonists of the androgen receptor (AR) signaling pathway using the MDA cell line (AID 743040; note: nearly all actives have a fitted effect of over 20% in size; note: potency is the fitted concentration of half-maximal effect); conditions: MDA-kb2 AR-luc cells, MMTV luciferase, 16 h; activity change: at 95 µM (top of the series), stronger effect = higher value
# Method in brief: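 Human breast carcinoma MDA-kb2 reporter cells (MMTV-luc, AR/GR elements) were treated for 16 h at 37C in 0% CO2 following a 5 h settling period. Signal was quantified by ONE-Glo luminescence.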
# [9] = system: thyroid hormone receptor (rat, GH3 cells); assay: qHTS assay to identify small molecule agonists of the thyroid receptor (TR) signaling pathway (AID 743066; calls by dose curve; note: % is set by controls: 0 for no effect and ±100 for the full control effect); conditions: GH3.TRE-Luc cells, TR agonist luciferase, 24 h; activation: at 83.9 µM (top of the series) unless noted
# [10] = qHTS assay to identify small molecule antagonists of the estrogen receptor alpha (ER-alpha) signaling pathway using the BG1 cell line (AID 743080; calls by dose curve;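 note: BG1 cells stimulated with 17beta-estradiol alongside compound; nearly all actives have a fitted effect of over 25% in size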; note: potency is the fitted concentration of half-maximal effect); conditions: BG1Luc4E2 ERE-luciferase antagonist mode, luminescence; activity change, negative = inhibition: at 70.3 µM (top of the series) unless noted
# Method in brief: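 Seeding, 24 h rest, compound transfer from DMSO, 17beta-estradiol addition, 21.5 h incubation, CellTiter-Fluor (30 min, 37 C), then ONE-Glo (30 min, room temperature): this sequence was run on BG1-Luc-4E2 reporter cells.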
# [11] = target: Estrogen receptor (Homo sapiens) (UniProt P03372); assay: qHTS assay to identify small molecule agonists of the estrogen receptor alpha (ER-alpha) signaling pathway using the BG1 cell line (AID 743079); conditions: BG1Luc4E2 cells, ERE-luciferase agonist, 22 h; activation: at 70.3 µM (top of the series) unless noted; note: nearly all actives have a fitted effect of over 20% in size; note: potency is the fitted concentration of half-maximal effect
# [12] = target: Androgen receptor (Homo sapiens) (UniProt P10275); assay: qHTS assay to identify small molecule antagonists of the androgen receptor (AR) signaling pathway using the MDA cell line (AID 743042; note: nearly all actives have a fitted effect of over 55% in size; note: potency is the fitted concentration of half-maximal effect)
# Method in brief: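 MDA-kb2 breast carcinoma cells carrying MMTV-luciferase (AR/GR responsive) were co-treated with compounds and the agonist R1881 for 16 h at 37C. Inhibition read as ONE-Glo luminescence; CellTiter-Fluor fluorescence measured in parallel for cytotoxicity.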
# [13] = qHTS assay to identify small molecule antagonists of the thyroid receptor (TR) signaling pathway - cell viability counter screen (AID 743064); conditions: GH3.TRE-Luc viability, CellTiter-Fluor, 24 h; activity change, negative = cytotoxic: at 70.3 µM (top of the series) unless noted; note: potency is the fitted concentration of half-maximal effect; nearly all actives have a fitted effect of over 50% in size
# Method in brief: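 Plate GH3.TRE-Luc cells; incubate 4 h at 37 °C; add compound, then T3 to 1 nM final; incubate 23.5 h; add CellTiter-Fluor; incubate 30 min at 37 °C, 5% CO2; read fluorescence.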
# [14] = qHTS assay to identify small molecule that activate the aryl hydrocarbon receptor (AhR) signaling pathway - cell viability counter screen (AID 743086); note: nearly all actives have a fitted effect of over 45% in size; note: potency is the fitted concentration of half-maximal effect
# Method in brief: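 HepG2-AhR-luc (HG2L7.5c1) cells, 4000/well, treated 24 h at 37 C with compound; viability measured as CellTiter-Fluor fluorescence after 30 min in the same wells as the luciferase read.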
# [15] = target: Peroxisome proliferator-activated receptor gamma (Homo sapiens) (UniProt P37231); assay: qHTS assay to identify small molecule agonists of the peroxisome proliferator-activated receptor gamma (PPARg) signaling pathway (AID 743094; active = well fitted activation curve with a large enough effect in the signal ratio in the repeat runs, not every such curve was filed as active; inconclusive = weak or mixed curves, or effect the other way; inactive = no such curve, though single readings can be large or run the other way; the % refers to the signal ratio; note: % is set by controls: 0 for no effect and ±100 for the full control effect); conditions: HEK293H PPARg-UAS-bla, beta-lactamase FRET ratio, 17 h; activation: at 57 µM (top of the series) unless noted
# UniProt P37231, sequence (P37231 whole entry, looked up): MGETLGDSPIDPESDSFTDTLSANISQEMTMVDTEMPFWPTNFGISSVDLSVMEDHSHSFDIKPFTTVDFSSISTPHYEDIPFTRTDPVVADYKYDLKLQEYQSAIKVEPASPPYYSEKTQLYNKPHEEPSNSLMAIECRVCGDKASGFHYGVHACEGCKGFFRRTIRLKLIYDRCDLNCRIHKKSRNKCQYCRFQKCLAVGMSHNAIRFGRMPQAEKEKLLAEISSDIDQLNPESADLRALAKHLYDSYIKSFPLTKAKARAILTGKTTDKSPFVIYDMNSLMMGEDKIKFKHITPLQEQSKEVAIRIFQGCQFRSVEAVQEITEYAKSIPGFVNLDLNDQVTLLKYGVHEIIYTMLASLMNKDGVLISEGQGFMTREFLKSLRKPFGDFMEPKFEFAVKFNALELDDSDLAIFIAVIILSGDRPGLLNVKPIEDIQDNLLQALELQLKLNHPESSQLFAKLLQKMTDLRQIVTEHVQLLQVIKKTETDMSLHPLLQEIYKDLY
# Method in brief: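 GeneBLAzer PPARg UAS-bla HEK293H cells were plated, rested 5 h, then exposed to compounds for 17 h at 37C. Beta-lactamase activity was read by LiveBLAzer B/G FRET substrate fluorescence after 1 h at room temperature.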
# [16] = qHTS assay to identify small molecule antagonists of the thyroid receptor (TR) signaling pathway (AID 743065); note: potency is the fitted concentration of half-maximal effect; nearly all actives have a fitted effect of over 55% in size
# Method in brief: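 GH3.TRE-Luc rat pituitary cells (two TREs driving luciferase) were dosed with compound, then stimulated with 1 nM T3 (final) for 23.5 h at 37 C. ONE-Glo luminescence was the read-out, with CellTiter-Fluor fluorescence as the cytotoxicity counter-screen.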
# Tags give direction and shape of the fitted curve or compound fluorescence and quenching.
smiles,measurement,setting,value
Cc1[nH]c(=O)n(C(C)(C)C)c(=O)c1Cl,Potency,[1],inactive
same,"activity, negative = inhibition",[2],inconclusive: -24.4% [at 79.1 µM]
same,Potency,[3],"inconclusive: 2.45 µM [rising, full curve, poor fit]"
same,Potency,[4],inactive
same,Potency,[5],inactive
O=[N+]([O-])C(Br)Br,"activity change, negative = inhibition",[1],inconclusive: 19.9%
same,Potency,Aromatase (Homo sapiens),"inconclusive: 30.7 µM [inhibitor, full curve, poor fit]"
same,Potency,[6],"inconclusive: 27.4 µM [cytotoxic, full curve]"
Nc1ccccc1C(=O)Oc1ccc2ccccc2c1,Potency,[7],inactive
same,Potency,[8],"inconclusive: 10.9 µM [activator, partial curve, poor fit]"
same,activation,[9],inconclusive: -8.44% [phenotype inactive]
same,Potency,[2],"inconclusive: 245 nM [activator, full curve, poor fit]"
same,Potency,[10],"inconclusive: 1.54 µM [rising, full curve]"
CCSC(=O)Cl,activation,[7],inconclusive: -0.0314% [at 79.1 µM]
same,activity change,[8],inconclusive: 2.75% [activator]
same,Potency,[3],inactive
same,Potency,[11],"inconclusive: 40.2 µM [inhibitor, partial curve, poor fit]"
same,Potency,[6],inactive
CCCSP(=O)(OCC)SCCC,Potency,[1],inactive
same,Potency,[12],"inconclusive: 39.9 µM [inhibitor, partial curve, poor fit]"
same,Potency,[13],"inconclusive: 0.217 µM [rising, full curve, poor fit]"
same,Potency,[3],"inconclusive: 63.9 µM [rising, partial curve, poor fit]"
same,Potency,[6],"inconclusive: 79.7 µM [cytotoxic, single point]"
COc1cc(OC)nc(Oc2cccc(Oc3nc(OC)cc(OC)n3)c2C(=O)O)n1,Potency,[1],inactive
same,Potency,[14],inactive
COP(=S)(OC)Oc1cc(Cl)c(Cl)cc1Cl,Potency,[7],"inconclusive: 30.1 µM [rising, partial curve, poor fit] and inconclusive: 26.8 µM [rising, partial curve, poor fit] and inconclusive: 13.7 µM [rising, partial curve, poor fit]"
same,Potency,[12],"inconclusive: 33.5 µM [inhibitor, single point] and inactive"
same,Potency,[2],"inconclusive: 4.25 µM [activator, full curve] and inconclusive: 7.56 µM [fluorescent, full curve, poor fit] and inconclusive: 13.7 µM [activator, full curve]"
same,Potency,[3],"inconclusive: 10.7 µM [rising, single point]"
same,Potency,[6],"inconclusive: 76.4 µM [rising, partial curve, poor fit]"
same,Potency,[14],"inconclusive: 33.5 µM [falling, single point]"
same,Potency,[15],inactive
CCOP(=S)(OCC)Oc1cc(Cl)c(Br)cc1Cl,"activity change, negative = inhibition",[1],inconclusive: 5.17%
same,Potency,[16],"inconclusive: 77 µM [inhibitor, single point]"
same,activation,[9],inconclusive: -7.74% [phenotype inactive]
same,Potency,[2],"inconclusive: 54900 nM [activator, partial curve]"
same,Potency,[4],inactive
same,activation,[11],inconclusive: 3.57% [phenotype inactive]
same,Potency,[10],inactive
